Measurements from the BET-seq Pho4 binding data (Le et al. 2018).
This is one part of the list. The energies were worked out here from pooled read counts, against the library average; single values are noisy.

Target: T1, Pho4 (S. cerevisiae) (UniProt P07270)
T1 sequence: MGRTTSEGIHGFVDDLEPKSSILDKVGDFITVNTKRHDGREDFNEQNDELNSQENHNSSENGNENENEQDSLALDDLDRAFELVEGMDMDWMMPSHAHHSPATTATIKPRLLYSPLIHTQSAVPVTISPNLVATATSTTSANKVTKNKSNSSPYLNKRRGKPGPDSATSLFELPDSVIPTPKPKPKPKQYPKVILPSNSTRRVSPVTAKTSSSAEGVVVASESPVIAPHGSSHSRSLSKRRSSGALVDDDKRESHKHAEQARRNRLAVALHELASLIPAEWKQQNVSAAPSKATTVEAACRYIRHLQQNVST
Test: relative binding free energy (BET-seq); higher = weaker binding
Details: reference: library average

Sequence | relative binding free energy [kcal/mol]
GGAAGCACGTGATGTC | 0.13
AGCAGCACGTGTGGGG | -0.17
ATGGACACGTGGTATA | -0.15
TTTCACACGTGGTTAT | -0.04
AAATGCACGTGTGGGT | 0.04
GGCGTCACGTGTGGAT | 0.16
CGATTCACGTGGTGAT | 0.12
CTGATCACGTGTGGTT | 0.19
GGTGCCACGTGGGGTA | -0.23
ATGGTCACGTGTGGTT | 0.15
GGGCGCACGTGTTTGA | -0.03
ATTGTCACGTGAGGGG | 0.33
TAAGGCACGTGTGAAT | 0.07
TTGCTCACGTGGGAGC | 0.26
CGTTTCACGTGGCTGG | 0.28
TGAGTCACGTGAAAAT | 0.37
TGCGGCACGTGACTGG | -0.02
TTGCGCACGTGGGCTG | -0.25
AAACGCACGTGTAGGG | -0.09
TTGAACACGTGTTTGC | 0.04
ATCATCACGTGTTTTG | 0.18
TTATACACGTGGGGCG | -0.02
AGTATCACGTGAGGGA | 0.31
AAAATCACGTGGGCGT | 0.08
GGGGTCACGTGTAGAA | 0.32
CGTTGCACGTGGACGG | -0.03

Sequence | relative binding free energy [kcal/mol]
GGTTGCACGTGCGTTT | 0.07
GATGGCACGTGGGTGG | -0.07
GCGTACACGTGGGATT | 0.22
TGGCACACGTGAGGGT | 0.28
TTGGACACGTGCAGGT | 0.09
CAGGCCACGTGTTTTG | 0
GTTAGCACGTGGTGGT | -0.11
TCTTTCACGTGTAGAT | 0.39
TCAGTCACGTGGTGCG | 0.06
CGAAGCACGTGGTTTG | -0.11
GTGTACACGTGCAAGG | -0.02
GATTCCACGTGTGTGT | 0.1
CGACGCACGTGGTGGG | -0.14
CGACTCACGTGGTTTT | 0.25
AATTGCACGTGGGGCA | -0.3
GGAGGCACGTGTTCGG | -0.15
AAGTTCACGTGGGTTC | 0.15
CTTGGCACGTGTTAGT | -0.11
TGTGTCACGTGAACGG | 0.35
AGAGGCACGTGCTTGG | -0.25
TGAGGCACGTGGGTCC | -0.28
AGAGACACGTGTGAGG | 0.15
CATTACACGTGTATGG | 0.09
TGCGTCACGTGTGCAT | 0.22
TGAGTCACGTGTGGCC | 0.14
AAGGGCACGTGCGCGG | -0.27

Sequence | relative binding free energy [kcal/mol]
ATGAACACGTGAGGGA | 0.28
GGAGGCACGTGGCGCT | -0.21
TATATCACGTGCGGGG | 0.13
TTGCTCACGTGGGGAG | 0.11
AGGGGCACGTGCCGGC | -0.24
GTAGTCACGTGCGGCG | 0.08
TGAGCCACGTGGTGTG | -0.28
CGGTTCACGTGTTGTC | 0.46
GATTCCACGTGTTGGG | 0.25
TTCGTCACGTGATATT | 0.17
TTCAGCACGTGCTTGT | 0.04
TGGGTCACGTGAGCAA | 0.25
TAGTTCACGTGCTTTC | 0.33
GTGTGCACGTGGGCAA | -0.21
TGAGTCACGTGTCGTC | 0.19
GTGGACACGTGAAATT | 0.33
TGTCTCACGTGTGAGT | 0.14
GGTTGCACGTGCAAGT | 0.03
GTCGGCACGTGCGTGA | -0.02
TTTCTCACGTGAGTTT | 0.45
GTTGGCACGTGTGACA | -0.06
ATTAACACGTGTTGAG | 0
CGATTCACGTGGGGTC | 0.1
TTTGGCACGTGAGATG | 0.06
GTAGCCACGTGATTGG | 0.18
TTATCCACGTGGGGTT | -0.06

Sequence | relative binding free energy [kcal/mol]
CTAGTCACGTGAGGAT | 0.25
AGCAGCACGTGGTAGT | -0.22
CGTTTCACGTGATATA | 0.26
TGGTTCACGTGTATAC | 0.29
ACTTTCACGTGAAGTT | 0.46
GAGAGCACGTGGTACG | -0.07
GAGGCCACGTGGAAGT | 0.18
CTTTACACGTGATTTA | 0.31
TTAGTCACGTGGGGAG | -0.08
GAAGGCACGTGGTGCA | -0.15
TGACGCACGTGAGAGG | 0.12
TTAGACACGTGAGTGA | 0.22
AAGTGCACGTGGGGTG | -0.18
ATTGTCACGTGTTCGT | 0
CAGGTCACGTGGATAG | 0.1
GTAAGCACGTGGGCAG | -0.11
TGTATCACGTGTTGTC | 0.15
AGGAACACGTGCGGGT | 0.03
GTATTCACGTGCGATT | 0.23
AGAGACACGTGGTGTA | -0.08
TTGTTCACGTGTGCCA | 0.32
CGGGACACGTGGTGCT | -0.05
TGGTTCACGTGTTAGA | 0.34
AGTGTCACGTGTTTGT | -0.02
GCTCTCACGTGTGTGT | 0.32
CTTCGCACGTGGTTTG | -0.06

Sequence | relative binding free energy [kcal/mol]
TTATGCACGTGATGGA | 0.2
TTGTTCACGTGTGTCG | 0.18
TACCGCACGTGGGTGG | -0.14
ATTAGCACGTGGCTGA | -0.1
TTTAGCACGTGAAGCG | 0.2
GGTTTCACGTGCCAGG | 0.4
TGGTTCACGTGGGTTA | 0.2
TTGGACACGTGAACGG | 0.26
CGCGGCACGTGTTGGC | -0.05
GGGGTCACGTGGAACA | 0.25
AGTGACACGTGATTTA | 0.2
TAGATCACGTGAGATG | 0.35
GGTTACACGTGGGTTG | 0.05
TGGGTCACGTGTCCAG | 0.06
TGGTACACGTGAGTTA | 0.3
CTGCTCACGTGGGAGG | 0.15
AGCGGCACGTGTAAGT | 0.04
GGCGCCACGTGGCGGG | -0.2
TGAGGCACGTGTTTCG | -0.09
TGGATCACGTGTGGCC | 0.32
TACTTCACGTGATAGT | 0.25
TTTTTCACGTGCGTGC | 0.25
GGCTTCACGTGGTTAT | 0.18
GGGGACACGTGATGGA | 0.27
TGAAACACGTGGTGGC | -0.03
GTGAGCACGTGGCGTA | -0.29

Sequence | relative binding free energy [kcal/mol]
GATGGCACGTGTGTAA | -0.1
GTGATCACGTGGCGGG | 0.06
GGTGCCACGTGTTATG | -0.18
TCTGGCACGTGGTTGA | -0.19
CATGGCACGTGTTAAG | -0.05
GGTTCCACGTGGGGGA | -0.06
TGGTTCACGTGTCAGA | 0.3
TGGAACACGTGATGGT | 0.11
GGACTCACGTGTGTTA | 0.25
GTGTTCACGTGCAGAT | 0.22
GAAGGCACGTGGAGGG | -0.07
CAGGTCACGTGATGTT | 0.23
TTTAGCACGTGTTGAC | -0.1
ATTAACACGTGTAGGC | -0.01
TATGACACGTGTTAAT | 0.02
AGGCACACGTGGGAGT | -0.13
GCTGTCACGTGAGTTA | 0.23
TGAATCACGTGGTGTC | 0.15
TTCAGCACGTGGTCTT | -0.12
GGATCCACGTGATAGT | 0.35
ATGGACACGTGTACGT | 0.03
TTCACCACGTGTTGGG | 0.14
TGTCGCACGTGGAGGG | -0.15
GAGATCACGTGGGGGT | 0.13
GTAAGCACGTGGTACA | 0.07
GTTTGCACGTGATGTC | 0.08

Sequence | relative binding free energy [kcal/mol]
TACGACACGTGTTGTG | 0.06
AGAGTCACGTGTGCTG | 0.06
ATTTGCACGTGAGGCT | 0.08
TATTGCACGTGCTAGG | 0.02
GGCGTCACGTGCGATG | 0.16
GGTGTCACGTGCGCAT | 0.04
TATATCACGTGTGTTA | 0.13
GGGCTCACGTGCGTTG | 0.3
CTTTTCACGTGTACGT | 0.27
ATGGTCACGTGTGGTC | 0.17
GAATGCACGTGGTAGT | -0.03
TTGAACACGTGAGGGG | 0.32
TCTATCACGTGCTTGT | 0.16
GGGGCCACGTGTGTAT | -0.05
CTAGGCACGTGGAGCT | -0.04
GGGTTCACGTGGGTCT | 0.3
TGATACACGTGGTCGG | 0.12
AAGTACACGTGTGTAT | 0.24
GTAGGCACGTGTATGG | -0.06
ATACGCACGTGAAGGG | 0.24
ATTGACACGTGTTTTT | 0.17
GATAGCACGTGGTCGG | -0.14
TATTACACGTGGTTTT | 0.01
ATCATCACGTGTTGTA | 0.13
GATGTCACGTGTAGGT | 0.17
AGGTTCACGTGGGGTC | 0.31

Sequence | relative binding free energy [kcal/mol]
CGCGGCACGTGGTGTA | -0.21
AAGGGCACGTGTCGTT | -0.01
GTATGCACGTGTAGGC | 0.14
GAGAGCACGTGAATGG | 0.23
GGTGGCACGTGGTTGA | -0.11
TGTAACACGTGATTAT | 0.19
ATATACACGTGAATTG | 0.29
ATGTTCACGTGTCTTA | 0.26
TTTGACACGTGATTTC | 0.11
CAGGGCACGTGTATTG | -0.05
ATAAGCACGTGTGGTA | -0.04
TTTCGCACGTGTAATG | 0.14
GTGTCCACGTGATAGT | 0.19
CAAGGCACGTGTGAGG | -0.08
GGGGGCACGTGGTCAC | -0.09
AAGGGCACGTGTTCAG | -0.1
TTCTTCACGTGATTGG | 0.31
ATGGGCACGTGAGGGA | 0.18
AATGGCACGTGGGTAG | -0.16
GTGGGCACGTGTTTAG | 0.02
GAGAGCACGTGGGATT | -0.13
CAGGGCACGTGTCAGG | -0.05
GGCGTCACGTGATGAT | 0.3
GATTTCACGTGGGTCG | 0.25
TGGGACACGTGATTGT | 0.22
AAGGGCACGTGTGTAT | -0.15

Sequence | relative binding free energy [kcal/mol]
TGTGCCACGTGCGAGT | -0.06
TGTGGCACGTGACTAG | 0.01
AGGGTCACGTGTACTG | 0.19
ATCTGCACGTGAGGTA | 0.16
CAATACACGTGAGGTG | 0.34
TCTAGCACGTGGCGTT | -0.07
TGTCTCACGTGTATGA | 0.07
GCCGTCACGTGGGAGG | 0.07
TGGGGCACGTGTTTTC | -0.02
TTGGTCACGTGGATAC | 0.1
GACATCACGTGGGGGT | 0.1
TAGATCACGTGTTTCT | 0.18
GCTGGCACGTGTGTTT | -0.02
CAGGACACGTGGGTGA | -0.05
TTTAACACGTGGAGGG | 0.1
AATCACACGTGTTAGG | 0.19
GGCTGCACGTGATGAT | 0.24
GGCGTCACGTGGTGAC | 0.1
CGGATCACGTGTGTGA | 0.18
GATGACACGTGGTAGG | -0.02
GCTATCACGTGTCGTT | 0.32
TTTGGCACGTGCAGTG | -0.1
